# Laboratory results taken from article PMC4336329 (PLoS ONE, 2015).
# In all, about 310,000 compounds went through this assay and about 2,200 (0.71%) showed an effect of 50% or more. The effect is printed as a negative number. The list shows a part of the results.
# Target: human ether-à-go-go-related gene (hERG) potassium channel (human, UniProt Q12809)
# Assay: primary screen, population patch clamp on CHO cells stably expressing hERG
# Sequence of human ether-à-go-go-related gene (hERG) potassium channel (Q12809 whole entry, looked up): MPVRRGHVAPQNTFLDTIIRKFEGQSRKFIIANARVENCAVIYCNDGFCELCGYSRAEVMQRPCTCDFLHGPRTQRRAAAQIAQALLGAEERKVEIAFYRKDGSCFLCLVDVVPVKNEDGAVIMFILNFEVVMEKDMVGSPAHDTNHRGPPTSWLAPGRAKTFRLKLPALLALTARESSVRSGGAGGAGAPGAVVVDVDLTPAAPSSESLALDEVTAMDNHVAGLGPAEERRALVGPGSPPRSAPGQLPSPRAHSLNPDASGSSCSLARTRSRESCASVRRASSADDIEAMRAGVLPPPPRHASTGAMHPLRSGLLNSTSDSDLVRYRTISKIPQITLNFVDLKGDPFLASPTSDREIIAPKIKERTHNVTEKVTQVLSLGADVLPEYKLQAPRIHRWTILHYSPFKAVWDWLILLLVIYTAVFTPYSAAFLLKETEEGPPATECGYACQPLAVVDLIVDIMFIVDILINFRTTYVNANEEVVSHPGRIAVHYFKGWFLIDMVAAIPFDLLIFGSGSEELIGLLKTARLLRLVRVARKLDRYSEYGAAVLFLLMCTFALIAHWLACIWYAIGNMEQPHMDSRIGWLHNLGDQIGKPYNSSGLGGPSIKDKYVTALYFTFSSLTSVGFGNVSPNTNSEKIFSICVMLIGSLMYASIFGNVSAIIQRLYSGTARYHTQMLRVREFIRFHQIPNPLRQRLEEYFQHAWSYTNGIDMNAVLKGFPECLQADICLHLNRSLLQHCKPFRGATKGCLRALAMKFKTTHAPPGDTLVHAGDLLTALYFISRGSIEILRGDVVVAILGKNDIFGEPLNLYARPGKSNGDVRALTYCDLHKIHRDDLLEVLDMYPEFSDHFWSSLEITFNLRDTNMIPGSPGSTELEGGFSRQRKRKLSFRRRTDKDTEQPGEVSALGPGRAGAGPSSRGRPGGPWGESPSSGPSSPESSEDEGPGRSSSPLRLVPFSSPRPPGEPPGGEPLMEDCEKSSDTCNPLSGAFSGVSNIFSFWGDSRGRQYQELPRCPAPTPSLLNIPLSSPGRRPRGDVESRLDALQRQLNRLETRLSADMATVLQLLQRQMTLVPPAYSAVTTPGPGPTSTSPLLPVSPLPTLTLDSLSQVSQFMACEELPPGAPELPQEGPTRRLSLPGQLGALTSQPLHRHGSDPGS
row,SMILES,"hERG current change (%, negative = inhibition) at 1uM [%]"
1,CC(=O)N1CCN(Cc2nc3cc(NC(=O)COc4cccc(C)c4)ccc3n2C)CC1.Cl,13.2
2,O=c1cc(CSc2nnnn2-c2ccc(O)cc2)nc2sccn12,-4.91
3,COc1cc(OC)c(C2=NOC(C(=O)O)C2)cc1Cl (centres unmarked),8.64
4,O=S(=O)(c1ccc(-c2ccon2)s1)N1CCCC1,11.7
5,COc1ccc(-c2nc3ccccn3c2Cl)cc1,12.5
6,CC(C)NC(=S)N=Nc1c(O)[nH]c2ccc(C(C)C)cc12,1.56
7,CCOc1ccc(CNc2ccc(CNc3ncn[nH]3)cc2)cc1,12.9
8,CCOC(=O)C1CCN(c2ccc(-c3cccs3)nn2)CC1,16.1
9,C=CCOc1c(Br)cc(CNn2nnnc2N)cc1OC,12.3
10,Cc1cc(NC(=O)c2ccc(Cl)c([N+](=O)[O-])c2)no1,11.3
11,Cc1ccccc1-n1nc(C)c2cc(C(=O)N3CCN(S(=O)(=O)c4ccc(Cl)cc4)CC3)sc21,13.1
12,CC(=O)Nc1cccc(-n2nnc(SCC(=O)Nc3ccccc3)n2)c1,15.7
13,Br.CC(C)c1nnc2n1N=C(c1ccc(Cl)cc1)CS2,20.4
14,CC1Cc2ccccc2N1C(=O)CN1CCC(n2nnc3cc(C(F)(F)F)ccc32)CC1 (centres unmarked),-9.16
15,CCOC(=O)C1=C(COC(=O)c2cccnc2Cl)NC(=O)NC1C (centres unmarked),6.46
16,O=C(CCC(=O)c1cccs1)NNC(=O)c1ccccc1O,9.97
17,O=C(O)C(Cc1ccc(O)cc1)N1C(=O)c2ccccc2C1=O (centres unmarked),11.3
18,O=C(Nc1cc(C(F)(F)F)ccc1Cl)C(Sc1ccccn1)c1ccccc1 (centres unmarked),8.72
19,CC(=O)Nc1ccc(S(=O)(=O)N2CCN(Cc3ccncc3)CC2)cc1,9.39
20,COc1cccc(C2=CC(=O)C[C@H](c3ccc4c(c3)OCO4)C2)c1OC,9.88
21,COc1ccc(NC(=O)CCCC(=O)c2ccccc2)cc1,16
22,COc1ccc(CNC(=O)CCS(=O)(=O)c2ccc3c(c2)CCN3C(C)=O)cc1,21.3
23,CCCCN(CCCC)C(=O)c1cc2ccccc2c(=O)o1,8.32

row,SMILES,"hERG current change (%, negative = inhibition) at 1uM [%]"
1,Cc1ccccc1CN1CCCN(Cc2ccc(Cl)cc2)S1(=O)=O,12
2,CCOc1ccc(/C(O)=C2/C(=O)C(=O)N(CC3CCCO3)C2c2cccs2)cc1 (centres unmarked),12.3
3,CC(C)C(C(=O)NCc1ccco1)N(CC1CCCO1)C(=O)CNS(=O)(=O)c1ccc(F)cc1 (centres unmarked),9.38
4,CCOC(=O)c1sc(N(Cc2ccccc2)C(=O)COC(=O)c2ccccc2O)nc1C,1.47
5,CC(=O)NC(CC(=O)N(C)C1CCCCC1)c1ccccc1 (centres unmarked),9.84
6,O=C(COC(=O)c1ccc(O)cc1)Nc1ccccc1,17.2
7,Cn1c2ccccc2c(=O)c2cc(C#Cc3ccc(N)cc3)ccc21,15.8
8,COc1ccc(/C(C)=N\NC(=O)C(c2ccncc2)N2CCOCC2)cc1 (centres unmarked),12.6
9,Cc1ccc(OC(=O)c2ccc([N+](=O)[O-])cc2Cl)cn1,9.22
10,COc1ccccc1NC(=O)Nc1nc(CC(=O)NCc2ccc(F)cc2)cs1,1.7
11,O=C(NCc1ccco1)C1Cc2ccccc2CN1S(=O)(=O)c1ccccc1F (centres unmarked),-5.25
12,Fc1ccc(C2=CCN(C(c3ccc(Cl)cc3)c3nnnn3Cc3ccccc3)CC2)cc1 (centres unmarked),3.95
13,CCCCn1c(N)c(N(CC(C)C)C(=O)CSc2ccc3c(c2)OCCO3)c(=O)[nH]c1=O,8.87
14,CC(=O)c1ccc(N(C)C)c2c(N(C)C)cccc12,-14.5
15,N#C/C(=C\c1ccc(N2CCOCC2)cc1)c1ccccc1,19.6
16,CC(=O)c1cccc(Nc2nc3ccccc3n3cnnc23)c1,11.3
17,COC(=O)Cn1cc(S(=O)(=O)NCc2ccc(C)cc2)c2cc([N+](=O)[O-])ccc21,4.67
18,CC(C)(C)NC(=O)c1cccc(NC(=O)Cc2cccs2)c1,6.55
19,O=C(NCCc1ccc2c(c1)OCCO2)c1ccccc1F,0.244
20,C=CCn1c(O)c(C=NCCN(C)C)c(=O)[nH]c1=O,10.9
21,Cc1c(OCc2ccc(C(=O)O)cc2)ccc2c(-c3ccccc3)cc(=O)oc12,17.5
22,O=C(Cc1ccc(Cl)cc1)NNC(=S)NC(=O)c1cccnc1,6.61
23,CCOC(=O)C1CCN(C(=O)c2cccc(NS(=O)(=O)c3ccc(Br)cc3)c2)CC1,6.44

row,SMILES,"hERG current change (%, negative = inhibition) at 1uM [%]"
1,Cc1ccc(NC(=O)COC(=O)C(NS(=O)(=O)c2ccc(Cl)cc2)C(C)O)cc1 (centres unmarked),7.76
2,CC(=O)Nc1ccccc1C(=O)OCc1ccc(F)cc1,6.32
3,CC(C)C(=O)Nc1cccc(NC(=S)NC(=O)c2ccc([N+](=O)[O-])cc2)c1,4.81
4,O=C(Nc1ccc(Nc2ccccc2)cc1)c1ccc(Cl)c([N+](=O)[O-])c1,6.23
5,COc1cc2ccccc2cc1-c1nnc(COc2ccccc2)o1,11
6,O=C(COC(=O)c1ccc(NS(=O)(=O)c2ccc3c(c2)OCCO3)cc1)NC1CCS(=O)(=O)C1 (centres unmarked),19.2
7,CCCN1CCC(NC(=O)CC2C(=O)NCCN2Cc2ccccc2C)CC1 (centres unmarked),5.75
8,COc1cccc(OCC(=O)NNC(=O)CCc2ccccc2)c1,18.3
9,COc1ccc(N2CCN(c3nc4ccccc4n3CC(=O)c3ccccc3)CC2)cc1,6.29
10,CCCc1cc(N2CCCC(C(=O)Nc3cc(Cl)ccc3OC)C2)n2ncnc2n1 (centres unmarked),-24.5
11,CN(C)CCCN(C(=O)c1ccc(S(=O)(=O)N2CCc3ccccc32)cc1)c1nc2ccc(F)cc2s1.Cl,6.04
12,CC(C)Cc1ccc(C(C)NC(=O)c2ccc(=O)[nH]c2)cc1 (centres unmarked),1.53
13,CC(=O)Nc1ccc(NC(=O)c2cccc(C(=O)OC(C)C)n2)cc1,10.8
14,CN(C(=O)c1cccc(NC(=O)c2ccco2)c1)c1ccccc1,12.4
15,Nc1cc(=O)nc(SCC(=O)NCc2ccccc2)n1CCc1ccccc1,7.58
16,Cc1ccc(NC(=O)c2cc(=O)[nH]c3ccccc23)cc1C,15.2
17,O=c1[nH]c2c(oc3ccccc32)c(=O)n1Cc1ccccc1,14.8
18,CC(=O)Nc1ccc(-c2csc(NNC(=O)c3ccccc3)n2)cc1,17.8
19,CC(C)(C)C(=O)Nc1ccccc1C(=O)Nc1ccccn1,12.4
20,COc1ccccc1N1CCN(C(=O)C2CCN(C(=O)c3ccccc3C)CC2)CC1,10.2
21,NC(=O)c1ccc(NCC2CCCO2)c([N+](=O)[O-])c1 (centres unmarked),8.75
22,Cc1ccc(NCc2n[nH]c(=S)n2-c2ccccc2)cc1,5.36
23,CCC(C)NC(=O)[C@H]1N2C(=O)c3ccccc3C2SC1(C)C (some centres unmarked),14.4

row,SMILES,"hERG current change (%, negative = inhibition) at 1uM [%]"
1,CC(C)N1CCN(Cc2cc3ccccc3[nH]2)CC1CCO (centres unmarked),14.3
2,C=C(C)COc1ccc(-c2ncncc2-c2ccccc2)c(O)c1,9.56
3,C=CCn1cccc(C(=O)Nc2cc(OC)ccc2OC)c1=O,12.7
4,COc1ccc(F)cc1S(=O)(=O)Nc1ccc2c(c1)OCCO2,4.62
5,CCCCn1c(SCC(=O)NCCOC)nc2ccc(N3CCOCC3)cc2c1=O,4.73
6,O=C(O)CCSCc1ccccc1F,12.4
7,OCCOCC#CCN1CCOCC1,14.7
8,Cc1cc(-c2c(C)[nH]n(-c3ccccc3)c2=O)n[nH]1,-3.68
9,Cc1ccc(N(CC(=O)N/N=C/c2cc(C)n(-c3ccccc3)c2C)S(C)(=O)=O)c(C)c1,10.7
10,CCCCN(C(=O)c1ccc(N(C)S(=O)(=O)c2ccc(C)cc2)cc1)c1c(N)n(CCCC)c(=O)[nH]c1=O,-4.43
11,CCOc1ccccc1Nc1nc(N)nc(CSc2nncn2C)n1,9.75
12,CNC(=S)Nc1cccc2[nH]ncc12,9.13
13,O=C(COC(=O)/C=C/c1ccc(Cl)cc1)NC1CCCCCC1,2.86
14,CCN(CC)c1ccc(NC(=O)Nc2ccc(C(C)=O)cc2)cc1,14.2
15,COc1cccc(C(CNC(=O)C(c2ccccc2)c2ccccc2)N(C)C)c1 (centres unmarked),15.8
16,Cc1ccc(C)c(N(CC(=O)N/N=C/c2ccc(-c3ccc([N+](=O)[O-])cc3)o2)S(=O)(=O)c2ccccc2)c1,11
17,CCCCOc1ccc(C(=O)OCC(=O)Nc2cc(C)on2)cc1,2.32
18,C/C(=N/NC(=O)CNC(=O)Cc1ccccc1)c1ccco1,13
19,Cc1c(C(=O)OCC(=O)N2c3ccccc3CC2C)oc2ccccc12 (centres unmarked),14.6
20,COC(=O)c1cnc(SCc2ccc(Cl)cc2)n1C,11.8
